The list shows a part of the results.
B1: PhoQ; a variant is named by its letters at X, in order, P23837 (parent)
chain: MKKLLRLFFPLSLRVRFLLATAAVVLVLSLAYGMVALIGYSVSFDKTTFRLLRGESNLFYTLAKWENNKLHVELPENIDKQSPTMTLIYDENGQLLWAQRDVPWLMKMIQPDWLKSNGFHEIEADVNDTSLLLSGDHSIQQQLQEVREDDDDAEMTHSVAVNVYPATSRMPKLTIVVVDTIPVELKSSYMVWSWFIYVLSANLLLVIPLLWVAAWWSLRPIEALAKEVRELEEHNRELLNPATTRELTSLVRNLNRLLKSERERYDKYRTTLTDLTHSLKTPLXXLQXXLRSLRSEKMSVSDAEPVMLEQISRISQQIGYYLHRASMRGGTLLSRELHPVAPLLDNLTSALNKVYQRKGVNISLDISPEISFVGEQNDFVEVMGNVLDNACKYCLEFVEISARQTDEHLYIVVEDDGPGIPLSKREVIFDRGQRVDTLRPGQGVGLAVAREITEQYEGKIVAGESMLGGARMEVIFGRQHSAPKDE

Variants of: B1
Assay: enrichment ratio after two sorts for PhoP signalling (ratio (wild type AVST 3.29)); higher = more functional
Conditions: with PhoP (E. coli)
In the case of KSWT, the enrichment ratio is reported as at most 0.25.
RGCK showed an enrichment ratio of at most 0.25.
With NYHG the enrichment ratio was at most 0.25.
TQKG showed an enrichment ratio of at most 0.25.
VCSN was tested, and the enrichment ratio was at most 0.25.
In the case of YNYN, the enrichment ratio is reported as at most 0.25.
For WSHS, the enrichment ratio was at most 0.25.
EGRT was tested, and the enrichment ratio was at most 0.25.
Variant PVCW has an enrichment ratio of at most 0.25.
For KCRS, the enrichment ratio was 0.38.
NFPV showed an enrichment ratio of at most 0.25.
HICD was tested, and the enrichment ratio was at most 0.25.
With WPIG the enrichment ratio was at most 0.25.
With TWTL the enrichment ratio was at most 0.25.
IEHR was tested, and the enrichment ratio was at most 0.25.
For HMNF, the enrichment ratio was at most 0.25.
In the case of MREQ, the enrichment ratio is reported as at most 0.25.
Work on VYPW yielded an enrichment ratio of at most 0.25.
LYDF was tested, and the enrichment ratio was at most 0.25.
IFVI showed an enrichment ratio of at most 0.25.
For MFTK, the enrichment ratio was at most 0.25.
VETF showed an enrichment ratio of at most 0.25.
DMEM gave an enrichment ratio of at most 0.25.
With RNDY the enrichment ratio was at most 0.25.
Work on WPCE yielded an enrichment ratio of at most 0.25.
For HPVG, the enrichment ratio was at most 0.25.
Work on FDWP yielded an enrichment ratio of at most 0.25.
Work on QACN yielded an enrichment ratio of at most 0.25.
VGCK gave an enrichment ratio of at most 0.25.
In the case of IRIW, the enrichment ratio is reported as at most 0.25.
For QVPE, the enrichment ratio was at most 0.25.
VFCL showed an enrichment ratio of at most 0.25.
Work on QFFE yielded an enrichment ratio of at most 0.25.
In the case of HSRI, the enrichment ratio is reported as at most 0.25.
FHVE was tested, and the enrichment ratio was at most 0.25.
KLLK gave an enrichment ratio of at most 0.25.
For IWLW, the enrichment ratio was at most 0.25.
NAMV showed an enrichment ratio of at most 0.25.
With INCF the enrichment ratio was 2.89.
SVHC gave an enrichment ratio of at most 0.25.
DSMV gave an enrichment ratio of at most 0.25.
In the case of FAPI, the enrichment ratio is reported as at most 0.25.
For PIAY, the enrichment ratio was at most 0.25.
TEEL showed an enrichment ratio of at most 0.25.
For VSNT, the enrichment ratio was at most 0.25.
TARY gave an enrichment ratio of at most 0.25.
With SLYK the enrichment ratio was at most 0.25.
SCIS showed an enrichment ratio of 4.23.
In the case of KIWV, the enrichment ratio is reported as at most 0.25.
With VWKQ the enrichment ratio was at most 0.25.
IYVN was tested, and the enrichment ratio was at most 0.25.
TYDP was tested, and the enrichment ratio was at most 0.25.
FDMD gave an enrichment ratio of at most 0.25.
For AYGH, the enrichment ratio was at most 0.25.
TQGH was tested, and the enrichment ratio was 18.9.
RPGN showed an enrichment ratio of at most 0.25.
KWAG showed an enrichment ratio of at most 0.25.
For MNYI, the enrichment ratio was 9.81.
Work on PYMY yielded an enrichment ratio of at most 0.25.
TELR was tested, and the enrichment ratio was 2.77.
Variant VTPN has an enrichment ratio of at most 0.25.
Work on FESY yielded an enrichment ratio of at most 0.25.
For DHEH, the enrichment ratio was at most 0.25.
Variant CFHL has an enrichment ratio of at most 0.25.
With MLMG the enrichment ratio was at most 0.25.
In the case of DHRM, the enrichment ratio is reported as at most 0.25.
Variant VRQS has an enrichment ratio of at most 0.25.
With PTAR the enrichment ratio was at most 0.25.
Work on FRID yielded an enrichment ratio of at most 0.25.
HPCD was tested, and the enrichment ratio was at most 0.25.
SFQG was tested, and the enrichment ratio was at most 0.25.
RCCS showed an enrichment ratio of at most 0.25.
SQVI showed an enrichment ratio of 8.63.
WRIP was tested, and the enrichment ratio was at most 0.25.
MALK gave an enrichment ratio of at most 0.25.
With GETK the enrichment ratio was at most 0.25.
Variant HPTV has an enrichment ratio of at most 0.25.
For AVCK, the enrichment ratio was 16.2.
With EAFT the enrichment ratio was at most 0.25.
For QFKI, the enrichment ratio was at most 0.25.
Variant TECS has an enrichment ratio of 26.8.
Work on LMNS yielded an enrichment ratio of at most 0.25.
Work on SHLN yielded an enrichment ratio of 2.15.
NQKF was tested, and the enrichment ratio was at most 0.25.
Work on CLTP yielded an enrichment ratio of at most 0.25.
Work on IAFL yielded an enrichment ratio of at most 0.25.
SAPI was tested, and the enrichment ratio was 10.2.
IHWW was tested, and the enrichment ratio was at most 0.25.
In the case of AYVD, the enrichment ratio is reported as at most 0.25.
RKSY was tested, and the enrichment ratio was at most 0.25.
Work on LIIG yielded an enrichment ratio of at most 0.25.
Work on SDAV yielded an enrichment ratio of 5.41.
Work on ENLL yielded an enrichment ratio of at most 0.25.
In the case of FQPD, the enrichment ratio is reported as at most 0.25.
Work on AWWR yielded an enrichment ratio of at most 0.25.
For TNRW, the enrichment ratio was at most 0.25.
WQHQ gave an enrichment ratio of at most 0.25.
DLGC showed an enrichment ratio of 0.982.
Variant HDLT has an enrichment ratio of at most 0.25.
With MFWG the enrichment ratio was at most 0.25.
With DHLQ the enrichment ratio was at most 0.25.
RHQP gave an enrichment ratio of at most 0.25.
With MEMI the enrichment ratio was 0.468.
For SPGL, the enrichment ratio was at most 0.25.
Variant FFGG has an enrichment ratio of at most 0.25.
With DNLQ the enrichment ratio was at most 0.25.
Variant MAIR has an enrichment ratio of at most 0.25.
With LAIW the enrichment ratio was at most 0.25.
Work on APWV yielded an enrichment ratio of at most 0.25.
For FSIG, the enrichment ratio was at most 0.25.
NDHN gave an enrichment ratio of at most 0.25.
Work on GIFR yielded an enrichment ratio of 0.521.
In the case of YYRQ, the enrichment ratio is reported as at most 0.25.
SRFG gave an enrichment ratio of at most 0.25.
With EFHV the enrichment ratio was at most 0.25.
HSAV was tested, and the enrichment ratio was at most 0.25.
TNYL gave an enrichment ratio of 2.54.
Work on KLRG yielded an enrichment ratio of at most 0.25.
AFVQ showed an enrichment ratio of at most 0.25.
ATGA showed an enrichment ratio of at most 0.25.
VEPD was tested, and the enrichment ratio was at most 0.25.
Variant QPCL has an enrichment ratio of at most 0.25.
With EKDV the enrichment ratio was at most 0.25.
AYLK was tested, and the enrichment ratio was at most 0.25.
TCNK gave an enrichment ratio of at most 0.25.
PFQL gave an enrichment ratio of at most 0.25.
Variant YGIN has an enrichment ratio of at most 0.25.
With YGNV the enrichment ratio was at most 0.25.
Work on STGY yielded an enrichment ratio of 8.87.
FEMS showed an enrichment ratio of 5.74.
TGLN was tested, and the enrichment ratio was 25.4.
HIDW showed an enrichment ratio of at most 0.25.
EEQP showed an enrichment ratio of at most 0.25.
KVRE showed an enrichment ratio of at most 0.25.
In the case of KQHW, the enrichment ratio is reported as at most 0.25.
Work on RATW yielded an enrichment ratio of at most 0.25.
AFCN gave an enrichment ratio of at most 0.25.
Variant LFDV has an enrichment ratio of at most 0.25.
Work on GKKY yielded an enrichment ratio of at most 0.25.
FPYV gave an enrichment ratio of at most 0.25.
GCCH was tested, and the enrichment ratio was at most 0.25.
For GIYS, the enrichment ratio was at most 0.25.
In the case of VVHL, the enrichment ratio is reported as at most 0.25.
With NNHT the enrichment ratio was at most 0.25.
SREG was tested, and the enrichment ratio was at most 0.25.
With EIWG the enrichment ratio was at most 0.25.
Work on AWDH yielded an enrichment ratio of at most 0.25.
For KFWE, the enrichment ratio was at most 0.25.
THWK was tested, and the enrichment ratio was at most 0.25.
AKAR was tested, and the enrichment ratio was at most 0.25.
FAER gave an enrichment ratio of at most 0.25.
In the case of LKCL, the enrichment ratio is reported as at most 0.25.
In the case of WFLE, the enrichment ratio is reported as at most 0.25.
In the case of QDCL, the enrichment ratio is reported as at most 0.25.
HDEA was tested, and the enrichment ratio was at most 0.25.
Work on FYDP yielded an enrichment ratio of at most 0.25.
Variant RVFS has an enrichment ratio of at most 0.25.
In the case of ACCI, the enrichment ratio is reported as 26.9.
GPPF was tested, and the enrichment ratio was at most 0.25.
For EGHL, the enrichment ratio was at most 0.25.
LPES gave an enrichment ratio of at most 0.25.
With LDIL the enrichment ratio was at most 0.25.
Variant IFAD has an enrichment ratio of at most 0.25.
For RGQP, the enrichment ratio was at most 0.25.
Variant TNYR has an enrichment ratio of at most 0.25.
MYLD was tested, and the enrichment ratio was at most 0.25.
For THWW, the enrichment ratio was at most 0.25.
In the case of EACK, the enrichment ratio is reported as at most 0.25.
TFTM showed an enrichment ratio of 3.86.
In the case of WLHG, the enrichment ratio is reported as at most 0.25.
For RHFH, the enrichment ratio was at most 0.25.
For HGIG, the enrichment ratio was at most 0.25.
YMLV showed an enrichment ratio of 0.756.
GDAG was tested, and the enrichment ratio was at most 0.25.
In the case of SNLM, the enrichment ratio is reported as 12.
QFEF gave an enrichment ratio of at most 0.25.
QLQV showed an enrichment ratio of at most 0.25.
TWGG gave an enrichment ratio of at most 0.25.
ARMW showed an enrichment ratio of at most 0.25.
In the case of DMLA, the enrichment ratio is reported as at most 0.25.
In the case of TCVW, the enrichment ratio is reported as at most 0.25.
With REAM the enrichment ratio was at most 0.25.
With AKHD the enrichment ratio was at most 0.25.
Work on SGCN yielded an enrichment ratio of 11.5.
REHC was tested, and the enrichment ratio was at most 0.25.
Variant TYER has an enrichment ratio of at most 0.25.
Variant KRQV has an enrichment ratio of at most 0.25.
Variant GHGY has an enrichment ratio of at most 0.25.
In the case of NSWN, the enrichment ratio is reported as at most 0.25.
Work on QMSM yielded an enrichment ratio of 0.862.
PKRT was tested, and the enrichment ratio was at most 0.25.
Variant MEMV has an enrichment ratio of 14.8.
MIVH was tested, and the enrichment ratio was at most 0.25.
TLGP showed an enrichment ratio of at most 0.25.
In the case of RQYL, the enrichment ratio is reported as at most 0.25.

Source: a collection of fitness landscapes (doi:10.1126/science.1257360)
